Experimental findings from the supplement of paper PMC10338343 are described below.

± gives the standard deviation. This is a selection; strong and weak results do not stand in their true shares.

The experiment deals with MIWI (PIWIL1) piRISC loaded with piRNA #1 (30 nt). Briefly: pre-steady-state target cleavage rate (min^-1); MIWI and MILI are mouse PIWI proteins and EfPiwi is from a freshwater sponge; tags in brackets are library labels; higher = faster piRNA-guided slicing of the target. Conditions: guide: piRNA #1 5'p-UGAGGUAGUAGGUUGUAUAGUAUCCAGAGG; auxiliary factor: 500 nM mouse GTSF1. A digest of the protocol:
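Using HEPES–potassium acetate buffer at 33 °C, 1 nM active affinity-purified piRISC with a single synthetic guide was mixed with 0.1 nM transcribed, DNA-blocked target RNA library for 0–8 or 0–960 min, with or without 500 nM GTSF1 partner protein. Uncleaved targets were sequenced and normalised to depth and to weakly complementary targets, and three trials were pooled with k3 capped at 0.0001 min^-1. A burst-and-steady-state fit gave the pre-steady-state cleavage rate.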
In the case of GGAGACCUAUGUAUACAACCUCCUACCUCA, the “pre-steady-state target cleavage rate” value was 0.0733 ± 0.0095.
Regarding GGAGACCUAUCUUUACAACCUUCUACCUCA, the “pre-steady-state target cleavage rate” value was found to be 0.0144 ± 0.0044.
As to GGAGAGGAUACUUUACUACCUACUACCUCA, the “pre-steady-state target cleavage rate” value stood at 0.884 ± 0.062.
To GCUCUGGAUUCUAUACAACCUACUACCACA belongs 0.898 ± 0.063; to GGAGUGGAUAGUAUACAACCUAGUACCUCA, 0.385 ± 0.034.
As to GGAGACGAUACUAUACUUGCUACUACCUCA, the “pre-steady-state target cleavage rate” value was determined as 0.057 ± 0.01.
On to GGAGUGGAUACUAUUCAACCUACAACCUCA, for which the “pre-steady-state target cleavage rate” value came to 0.234 ± 0.028.
To GGAGACCUAACUAUACAACCUACUACCAGA belongs 0.385 ± 0.062; to GGAGUGGAGACUAUACAACCUACUACCUCA, 1.65 ± 0.099.
For the sequence GGUCUGGAUACAAUACAACCUACUACGUCA, the “pre-steady-state target cleavage rate” value amounted to 0.783 ± 0.068.
To GGAGACCUAUGAAUUCAACCUAGUACCUCA belongs less than 0.0001; to GCUCUGGAUACUAUACAACUACUACCUCA, 0.565 ± 0.035.
To GCUCUGGAUACUAUACAACCUACUACGACA belongs 1.34 ± 0.11; to CCUCUGGAUACUAUACAACCUAGUUCCUCA, 0.114 ± 0.029; to GGAGACCUUACUAUACAUCGUACUACCUCA, 0.0464 ± 0.007.
To GGAGACCUAUCUAUAGAACCUUCUACCUCA belongs 0.0608 ± 0.0097.
